Results published in PubChem BioAssay AID493208 (National Center for Advancing Translational Sciences (NCATS), 2011).
Hit rate of the full screen: of about 44,000 compounds, about 340 (0.77%) were called active. Roughly 5% stayed inconclusive and do not appear here. The call rests on the fitted dose curve; in most records, active means well fitted inhibition curve with a large enough effect; inconclusive means small, poorly fitted or top-dose-only effect; inactive means flat fitted curve, though single readings scatter. This is one part of the list.

Experiment: Acumen qHTS Assay for Inhibitors of the mTORC1 Signaling Pathway in MEF (Tsc2-/-, p53-/-) Cells: Sytravon;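 further: plate controls were DMSO for no effect and rapamycin for full effect; nearly all actives have a fitted effect of over 50% in size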
Conditions: phospho-rpS6 immunofluorescence/PI, 24 h; series mostly up to 38.3 µM; activity change, negative = inhibition: at the top concentration
Procedure, shortened: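 Tsc2-/-, p53-/- mouse embryonic fibroblasts (empty-vector line) exposed to compound 24 hrs at 37 C, fixed, immunostained for phospho-rpS6 and counterstained with propidium iodide. Acumen laser scanning gives % positive cells from Alexa 488/PI ratio, thresholded using 7.5 nM rapamycin; PI count gives viability.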

Activity change, negative = inhibition, inactive:
CC(=O)N1CCCc2cc(S(=O)(=O)N3CCC(C(=O)NCc4ccc(C)cc4)CC3)ccc21 -0.808%
CCN(CC)CCNC(=O)c1cn(CC)c2ccc(S(=O)(=O)N3CCOCC3)cc2c1=O -0.101%
Cc1ccc(CCNC(=O)Cn2nc(-c3ccc(C)cc3)ccc2=O)cc1 -21.1%
COc1ccc(OCC(=O)OCc2cc(=O)n3nc(C4CCCCC4)sc3n2)cc1 0%
O=C(Cn1ncc2ccc(Cl)cc21)NCc1ccc(F)cc1 -14.8%
CSc1cccc(Nc2nc3c(S(=O)(=O)c4ccccc4)nnn3c3ccc(Cl)cc23)c1 -0.107%
Cc1ccc(C)c(NC(=O)CSc2ncc(S(=O)(=O)c3ccc(C)c(Cl)c3)c(=O)[nH]2)c1 5.98%
O=C(c1ccc2c(c1)N(Cc1ccc(F)cc1)C(=O)c1ccccc1S2=O)N1CCC(Cc2ccccc2)CC1 (stereo unspecified) -4.58%
COc1ccc(Cn2c(SCc3ccc(C(=O)NC(C)C)cc3)nc3cccnc32)cc1 -2.11%
COc1ccccc1NC(=O)c1cccc(S(=O)(=O)N2CCCCCC2)c1 6.27%
Cc1c(Cl)cccc1NC(=O)Nc1nnc(N2CCCCCC2)s1 -7.44%
Cc1ccc(C(=O)Nc2cccc(C(=O)O)c2)cc1S(=O)(=O)N1CCCC1 -5.52%
C=C(C)CSc1nc2sc3c(c2c(=O)n1-c1ccccc1)CC(C(C)C)OC3 (stereo unspecified) -5.63%
CCC1CN(C(=O)N2CCC(C(=O)NCc3cccc(C)c3)CC2)c2ccccc2O1 (stereo unspecified) 8.34%
O=C(Cn1c(=O)nc(-c2ccccc2F)c2cc(Cl)ccc21)N1CCN(c2ccccc2F)CC1 7.01%
CCCCC(CC)CNC(=O)CN1C(=O)CSc2ccc(S(=O)(=O)N3CCOCC3)cc21 (stereo unspecified) -2.34%
CCOc1ccccc1N(CC)C(=O)c1cc2c(=O)[nH]c3ccc(C)cc3c2s1 -11.8%
COC(=O)c1scc(-c2ccc(C)cc2)c1S(=O)(=O)Nc1cc(OC)c(OC)c(OC)c1 0.181%
COc1ccc(CNC(=O)c2c3c(nc4ccccc24)C(=O)N(C2CCCCC2)C3)c(OC)c1 9.94%
O=C(Cn1cc(S(=O)(=O)Cc2cccc(Cl)c2)c2ccccc21)NCCc1ccccc1 -3.78%
Clc1cccc(-n2ncc3c(N4CCCCC4)ncnc32)c1 -2.35%
Cc1ccc(NC(=O)/C(C#N)=C/c2ccc(C(C)C)cc2)cc1C -3.23%
CCN(c1cccc(C)c1)S(=O)(=O)c1ccc2[nH]cc(C(=O)NCCCOC)c(=O)c2c1 -0.849%
CC(=O)Nc1nonc1-c1nnc(SCC(=O)N(C)c2ccccc2)n1C 1.27%
COc1ccc(CNC(=O)C(=O)Nc2ccc(OC)cc2OC)cc1 -1.6%
CCOC(=O)c1cnc2c(C)c(Cl)ccc2c1NCCc1ccccc1 3.05%
